The text below walks through data of the RNAGym collection of RNA variant scans (doi:10.7554/elife.90254).

Read counts are not given, so values of variants with three or more changes are uncertain.

Sequences and labels used below:
B1: LINE1-full (parent)
chain: UACGUAGGUGGUUUUCCCCUGAUAGUGCUAAGGGGGCCUGGAAGUUUGGACUGGGCAGAGCUCAACACAGCGUGGCAAAGUGGCUGUGGCUAGACUGCCUCUCUGGAUUCCUCGUCACUCAGCAGGGCAUCUCUGAGAGAAAUGCC

The data set covers variants of B1. Description: self-cleavage, relative activity (ratio to wild type); higher = more cleavage; in vitro, sequencing; the parent is a self-cleaving ribozyme.
For UACGUAGGUGGCUUUCCCCUGAUAGUGCUGAGGGGGCCUGGAAGUUUGGACUGGGCGGAGCUCAACACAGCGUGGCAAAGUGGCUGUGGCUAGACUGCCUCUCUGGAUUCCUCGUCACUCAGCAGGGCAUCUCUGAGAGAAAUGCC, the self-cleavage is 0.

For the variant UACGUAGGUGGUAUUCCCCUGAUAGUACUAAGGGGGCCUGGAAGUUUGGACUGGGCAGAGCUCAACACAGCGUGGCUAAGUGGCUGUGGCUAGACUGCCUCUCUGGAUUCCUCGUCACUCAGCAGGGCAUCUCUGAGAGAAAUGCC, the self-cleavage was found to be 0.72.

As to UACGUAGGUGGUUUUCCCCCGAUAGUGCUAAGGGGGCCUGGAAGUUUGGACUGGGCAGAGCUCAACACAGCGUGGCAAAGUGGCAGUGGCUAGACUGCCUCUCUGGAUUCCUCGUCACUCAGCAGGGCAUCUCAGAGAGAAAUGCC, the self-cleavage is 0.09.

In the case of UACAUAGGUGGUUUUCCCCUGAUAGUGCUAAGGGGGCCUGGAAGCUUGGACUGGGCAGAGCUCAACACAGCGUGGCAAAGUGGCUGUGGCUAGACUGCCUCUCUGGAUUCCUCGACACUCAGCAGGGCAUCUCUGAGAGAAAUGCC, the self-cleavage stood at 1.53.

UACGUAGGUGGUUUUCCCCUGAUAGUGCUAAGGGGGCCUGGAAGUUUGGACUGGGCAGAGCUCAACACAGCGUGGCAAAGCGGCUGUGGCUAGACUGCCUCUCUGGAUUCCUCAUCACUCAGCAGGGCUUCUCUGAGAGAAAUGCC: the self-cleavage stood at 1.29.

As for UACGUAGGUGGUCUUCCCCUGAUAGUGCUAAUGGGGCCCGGAGGUUUGGACUGGGCAGAGCUCAACACAGCGUGGCAAAGUGGCUGUGGCUGGACUGCCUCUCUGGACUCCUCGUCACUCAGCAGGGCAUCUCUGAGAGAAAUGCC, the self-cleavage stood at 0.

Take UACGUAGGUGGUUUUCCCCUGACAGUGCUAAGGGGGCCUGGAAGUAUGGACUGGGCAGAGCUCAACACAGCGUGGCAAAGAGGCUGUGGCUAGACUGCCUCUCUGGAUUCCUCGUCACUCAGCAGGGCAUCUCUGAGAGAAAUGCC: the self-cleavage stood at 2.17.

For UACGUAGGUGGUUUUCCCCUGAUAGUGCUAAGGGGGCCUGGCAGUUUGGGCUGGGUAGAGCUCAACACAGCGUGGCAAAGUGGCUGUGGCUAGACUGCCUCUCAGGAUUCCUCGUCACUCAGCAGGGCAUCUCUGAGAGAAAUGCC, the self-cleavage was found to be 0.1.

Turning to UACGUAGGUGGUUUUCCCCUGAUAGAGCUAAGGGGGCCUGGAAGUUUGGACUGGGCAGAGCUCAACACAGCGUGGCAAAGUGGCUGUGGCUAGGCUGCCUCUCUGGAUUCCUCGUCACUCAGCAGGGCAUCCCUGAGAGAAAUACC, the self-cleavage turned out to be 0.4.

Consider UACGUAGGUGGUUUUCCCCUGAUAGUGCUAAGGGGGCCUGGAGGUUUGGACUGGGCAGAGCUCAACACAGCGUGGCAAAGUGGCUGUGGCUAGACUGCCUCUCUAGACUCCUCGCCACUCAGCAGGGCAUCUCUGAGAGGAAUGCC, for which the self-cleavage was 1.23.

UACGUAGGUGGUUUUCCCCCGAUAGUGCUAAGGGAGCCUGGAAGUUUGGACAGGGCAGAGCACAACACAGCGUGGCAAAGUGGCUGUGGCUAGACUGCCUCUCUGGAUUCCUCGUCACUCAGCAGGGCAUCUCUGAGAGAAAUGCC: the self-cleavage was determined as 0.06.

As to UACGUAGGUGGUUUUCCCCUGUUAGUGCUAAGGGGGCCUGGAAGUUUGGACUGGGCAGAGCUCAACACAGCGAGGCAAAGUGGCUGUGGCUAGACUGCCUCACUGGAUUCCUCGUCACUCAGCAGGGCAUCUCUGAGAGAAAUGCC, the self-cleavage is 0.99.

On to UACGCAGGUGGCUUUCCCCUGAUAGUGCUAAGGGGGCCUGGAAGUUUGGACUGGGCAGAGCUCAACACAGCGUGGCAAAGUGGCUGUGGCUAGACUGCCUCUCUGGACUCCUCGUCACUCAGCAGGGCAUCUCUGAGAGAAGUGCC, for which the self-cleavage is 1.67.

Consider UACGUAGGUGGUUUUCCCCUGAUAGUGCUAAGGGGGCCUGGAAGUUUGGACUGGGUAGAGCUCAACACAGCGUGGCAAAGUGGCUGUGGCUAGACUGCCUCUCUGGAUUCCUCGUCACCCAGCAGGGCAUCUCUGAGAGGAAUGCC, for which the self-cleavage was 0.5.

In the case of UACGUAGGUGGUUUCCCCUUGAUAGUGCUAAGGGGGCCUGGAAGUUUGGACUGGGCAGAGCUCAACACAGCGUGGCAAAGUGGCUGUGGCUAGACUGCCUCUCUGGAUUCCUCGUCACACAGCAGGGCAUCUCUGAGAGAAAUGCC, the self-cleavage came to 0.82.

Turning to UACGUAGGUGGUUUUCCCCUGAUAGUGCUAAGGGGGCCUGGAAGUCUGGACUGGGCAGAGCUUAACACAGCGUGGCAAAGUGGCUGUGGCUAUACUGCCUCUCUGGAUUCCUCGUCACUCAGCAGGGCAUCUCUGAGGGAAAUGCC, the self-cleavage stood at 0.04.

With UACGUAGGUAGUUAUCCCCUGAUAGUGCUAAGGGGGCCUGGAAGUUUGGACUGGGCAGAGCUCAACACAGCGUGGCUAAGUGGCCGUGGCUAGACUGCCUCUCUGGAUUCCUCGUCACUCAGCAGGGCAUCUCUGUGAGAAAUGCC, the self-cleavage came to 0.37.

On to UACGUAGGUGGUUUUCCCCUGAUAGCGCUAAGGGUGCCUGGAAGUUUGGACUGGGCAGAGCUCAACACAGCGUGGCAAAGUGGCUGUGGCUAGACUGCCUCUCAGGAUUCCUCGUCACUCAGCAGGGCAUCUCUGAGAGAAAUGCC, for which the self-cleavage turned out to be 0.79.

In the case of CACGUAGGUGGGUUUCCCCUGAUAGUGCUAAGGGGGCCUGGAAGUUUGGACUGGGCAGAGCUCAACACAGCGUGGCAAAGUGGCUGUGGCUAGACUGCCUCUCUGGAUUCCUCGUCACUCAGCAGGGCUUCUCUGAGAGAAAUGCC, the self-cleavage came to 0.99.

Consider UACGUAGGUGGUUUUCCCCUGAUAGUGCUAAGGGGGCCUGGAAGUAUGGACCGGGCAGAGCUCAACACAGCGUGGCAAAGUGGCUGUGGCUAGACUGCCUCUCUGGAUUCCUCGUCACUCAGCAGGGCAUCUCUGAGGGAGAUGCC, for which the self-cleavage amounted to 1.15.
